The record followed here is publication PMC7819943, “Rice protein-binding microarrays: a tool to detect cis-acting elements near promoter regions in rice”.

The other results are listed elsewhere or left out.

This assay addresses T1, OsWOX13 (Oryza sativa, UniProt Q5QMM3 1-267).
T1 sequence: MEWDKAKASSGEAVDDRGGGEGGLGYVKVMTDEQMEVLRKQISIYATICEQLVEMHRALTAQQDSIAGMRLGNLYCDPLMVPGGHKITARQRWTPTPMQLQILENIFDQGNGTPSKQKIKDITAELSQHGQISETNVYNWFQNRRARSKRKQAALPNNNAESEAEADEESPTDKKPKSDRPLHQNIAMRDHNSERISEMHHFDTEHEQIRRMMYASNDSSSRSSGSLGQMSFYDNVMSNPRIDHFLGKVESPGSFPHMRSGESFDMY
The experiment in a line: protein-binding microarray (RPBM); PBS, 2% BSA, 51.3 ng/ul salmon testes DNA, 50 uM zinc acetate, 200 nM TF, 25 C, 1 h; high values mean tight binding. The following applies: protein: recombinant; tags: N-terminal polyhistidine and DsRed monomer fusion (pET32a); label: CyDye5-dUTP incorporated in the synthesized complementary strand; 3' TTTTT single-stranded linker to array surface; dsDNA, one strand shown. The procedure, abridged: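 Binding signal is defined as the fluorescence intensity of each feature in arbitrary units, read on an Axon 4000B scanner. Transcription factors with N-terminal polyhistidine and DsRed fusions came from E. coli BL21-CodonPlus and were purified on Ni–NTA. They were incubated at 200 nM for 1 h at 25 °C on a custom Agilent array that had been made double-stranded with Cy5-dUTP, with 50 µM zinc acetate present, and the array was washed.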
Turning to “TTGAATTGTTAGATTTGTTTCAAGATTCTTACCGGCAAGGCGGAGTCACCTAGTGCAG”, the binding signal was 7720 fluorescence intensity (a.u.).
Next, “CATACCAAATCAATTACCAATACCTAGTCATATGCTTCATCGGAGTCACCTAGTGCAG”: 10900 fluorescence intensity (a.u.).
Then “TTTTATGATTAATATTTTATTGTTATTAGATGATAAAACACGGAGTCACCTAGTGCAG”, with 5150 fluorescence intensity (a.u.).
Then “GTGTCGCCAGTGATTGCAGTTTCAGTTCGAAATTTCTCTACGGAGTCACCTAGTGCAG”, with 9490 fluorescence intensity (a.u.); and “AAAATAATTCAGAAGATAGATTGATATGTGATAAATCACTCGGAGTCACCTAGTGCAG”, with 24500 fluorescence intensity (a.u.); and “TGTGACCGGTTTTGATTAGTTAAGGGACGCCGGGTATCTGCGGAGTCACCTAGTGCAG”, with 13500 fluorescence intensity (a.u.).
“ACTCCATTGCCTATAAATCACACGTACTAACTGGCGGGGTCGGAGTCACCTAGTGCAG”: the binding signal is 5380 fluorescence intensity (a.u.).
Then “ATGACAGATAAGCTAACTATTGTTCCTTCACCTGTCAAAACGGAGTCACCTAGTGCAG”, with 13100 fluorescence intensity (a.u.); and “TTAATTGCCGAGGAAACTCGTCTACAGTCACTTCCCAACGCGGAGTCACCTAGTGCAG”, with 4080 fluorescence intensity (a.u.).
Regarding “ATTGACACACTTAAATTTTACATCACACTCAATAAAAGTGCGGAGTCACCTAGTGCAG”, the binding signal is 9780 fluorescence intensity (a.u.).
Regarding “TCCCTGGTTACTTGATTAGTCTGTGTGACGTGTAGCGGTTCGGAGTCACCTAGTGCAG”, the binding signal was 8660 fluorescence intensity (a.u.).
Next, “GTATTTGGATAATTGGCAAACCTAAAAGTGGCAAATAGTTCGGAGTCACCTAGTGCAG”: 9670 fluorescence intensity (a.u.); “AAGTAATTGGATGTTTTAAGGGACAAGGTTTGTCTTCTTACGGAGTCACCTAGTGCAG”: 28500 fluorescence intensity (a.u.); “AAACATTGATTGTGTTCCCCTGTTAATATGGATTTTATGGCGGAGTCACCTAGTGCAG”: 21700 fluorescence intensity (a.u.).
Next, “TCCTATAATTTATAGATTATTATGGCCAGTCTAAACGGTTCGGAGTCACCTAGTGCAG”: 14100 fluorescence intensity (a.u.); “CCACTTTTAAAATGTGGTAATTAAGGATTTGTAACAGTGGCGGAGTCACCTAGTGCAG”: 5010 fluorescence intensity (a.u.); “GTTTGAATTTTCTAATTGCTTCTACTGTTTGCCTCAGCTCCGGAGTCACCTAGTGCAG”: 6270 fluorescence intensity (a.u.).
For the sequence “AAGTGCTAATTATTAATGGTGATTGAATTTATCCGAGCATCGGAGTCACCTAGTGCAG”, the binding signal was 16100 fluorescence intensity (a.u.).
As for “GCCCAAATTGACCAGGCCCTGTTACGTCTCGTGCTCCCCTCGGAGTCACCTAGTGCAG”, the binding signal was 32900 fluorescence intensity (a.u.).
As to “TTCCATTTAATTGCCTTGAGCAAACTAATGATACTTCTCGCGGAGTCACCTAGTGCAG”, the binding signal is 24500 fluorescence intensity (a.u.).
Then “TAAATTGATATGAGTTATTAAGTAAGACATTGTAAAATGCCGGAGTCACCTAGTGCAG”, with 19500 fluorescence intensity (a.u.); and “GTAATTAATTACTTGATTAACAATTAAATAATAATAGTTACGGAGTCACCTAGTGCAG”, with 33200 fluorescence intensity (a.u.).
“AGCCTAATTACGTCATGATTTGACAATGTAATGATACCGTCGGAGTCACCTAGTGCAG”: the binding signal is 53500 fluorescence intensity (a.u.).
Then “CGCTGATTAGTGCAAAATATTACAAGTCCTATATAGCTAACGGAGTCACCTAGTGCAG”, with 33900 fluorescence intensity (a.u.); and “GTTGCCAATCAACAAAAGATTTCTTGAGCGTTGGCAGAACCGGAGTCACCTAGTGCAG”, with 19000 fluorescence intensity (a.u.).
Next, “GTGTGGAAATTGGAAATCGATCAGCAAGCTGCTGGAGCTACGGAGTCACCTAGTGCAG”: 3180 fluorescence intensity (a.u.).
Next, “ATCTTATGATTAGTGAAGAGTGTTGAAATTAAAACACATGCGGAGTCACCTAGTGCAG”: 14900 fluorescence intensity (a.u.).
“AATAATTGCTCCTCGTCGCCGGAGCAGAAGGTCTCGAGGACGGAGTCACCTAGTGCAG”: the binding signal was 9360 fluorescence intensity (a.u.).
Then “GCTTGCTTATTCAATCAGCTCAATTCCTAACAACAAGTTTCGGAGTCACCTAGTGCAG”, with 4940 fluorescence intensity (a.u.).
Then “GTACAAATCAATTTTCTGTATACAGCTATAGAGGCGTGCACGGAGTCACCTAGTGCAG”, with 8520 fluorescence intensity (a.u.).
Next, “CACCGTGCTGTGTTAATGGGCTAATTTGTAGCGAGCGCCTCGGAGTCACCTAGTGCAG”: 3670 fluorescence intensity (a.u.); “CTAACTAATCTATCAGCAGAGGCAGCAAGCTCGTGCATGGCGGAGTCACCTAGTGCAG”: 4460 fluorescence intensity (a.u.).
As to “TAAGCAATTATTGTATGAATGGGCTATTGCATTGGCTATACGGAGTCACCTAGTGCAG”, the binding signal was 5610 fluorescence intensity (a.u.).
On to “TTTGAATTTTCAATCTTAAATTTAGAGTTGATTTTGAAGTCGGAGTCACCTAGTGCAG”, for which the binding signal is 24700 fluorescence intensity (a.u.).
With “TGGCAATTAATTAATCACGCGGTCTTAATATATACTCCCGCGGAGTCACCTAGTGCAG”, the binding signal was 38400 fluorescence intensity (a.u.).
Next, “AAGCCTAATTAATCTATCATTAGCAAATGTTTACTATATCCGGAGTCACCTAGTGCAG”: 32000 fluorescence intensity (a.u.).
As to “CAGAATTGAGAGTTCACATATCCTCAGTGGTCAGAGTTCACGGAGTCACCTAGTGCAG”, the binding signal is 6100 fluorescence intensity (a.u.).
Then “TCAAACTTAACAGCGTTTGATCCATTCACATCCGGCCCATCGGAGTCACCTAGTGCAG”, with 3710 fluorescence intensity (a.u.).
As to “CAAATTGATACCGGCCGAGTTGTGAATGGAAGAGAATCTGCGGAGTCACCTAGTGCAG”, the binding signal was 13500 fluorescence intensity (a.u.).
Next, “GGGATGATTTTGTAACTCGATGACAAGTTGAGGGACCTTTCGGAGTCACCTAGTGCAG”: 15100 fluorescence intensity (a.u.); “ATTCTTTCCTCAATCAAACCAACCCTTCTCTTCTCCACAGCGGAGTCACCTAGTGCAG”: 3220 fluorescence intensity (a.u.); “TTAATGATGACAGGAAAATCAACTATATATTGGGTTATCCCGGAGTCACCTAGTGCAG”: 23800 fluorescence intensity (a.u.).
